# Results as given in article PMC4336329 (PLoS ONE, 2015).
# Screen size: about 310,000 compounds; about 14,000 (4.5%) showed an effect of 50% or more. The effect is printed as a negative number. The list shows a part of the results.
# Target: human ether-à-go-go-related gene (hERG) potassium channel (human, UniProt Q12809)
# Experiment: primary screen, population patch clamp on CHO cells stably expressing hERG
# 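Note: peak tail current of the secondary pulse compared with the same well before compound.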
# Chain of human ether-à-go-go-related gene (hERG) potassium channel (Q12809 whole entry, looked up): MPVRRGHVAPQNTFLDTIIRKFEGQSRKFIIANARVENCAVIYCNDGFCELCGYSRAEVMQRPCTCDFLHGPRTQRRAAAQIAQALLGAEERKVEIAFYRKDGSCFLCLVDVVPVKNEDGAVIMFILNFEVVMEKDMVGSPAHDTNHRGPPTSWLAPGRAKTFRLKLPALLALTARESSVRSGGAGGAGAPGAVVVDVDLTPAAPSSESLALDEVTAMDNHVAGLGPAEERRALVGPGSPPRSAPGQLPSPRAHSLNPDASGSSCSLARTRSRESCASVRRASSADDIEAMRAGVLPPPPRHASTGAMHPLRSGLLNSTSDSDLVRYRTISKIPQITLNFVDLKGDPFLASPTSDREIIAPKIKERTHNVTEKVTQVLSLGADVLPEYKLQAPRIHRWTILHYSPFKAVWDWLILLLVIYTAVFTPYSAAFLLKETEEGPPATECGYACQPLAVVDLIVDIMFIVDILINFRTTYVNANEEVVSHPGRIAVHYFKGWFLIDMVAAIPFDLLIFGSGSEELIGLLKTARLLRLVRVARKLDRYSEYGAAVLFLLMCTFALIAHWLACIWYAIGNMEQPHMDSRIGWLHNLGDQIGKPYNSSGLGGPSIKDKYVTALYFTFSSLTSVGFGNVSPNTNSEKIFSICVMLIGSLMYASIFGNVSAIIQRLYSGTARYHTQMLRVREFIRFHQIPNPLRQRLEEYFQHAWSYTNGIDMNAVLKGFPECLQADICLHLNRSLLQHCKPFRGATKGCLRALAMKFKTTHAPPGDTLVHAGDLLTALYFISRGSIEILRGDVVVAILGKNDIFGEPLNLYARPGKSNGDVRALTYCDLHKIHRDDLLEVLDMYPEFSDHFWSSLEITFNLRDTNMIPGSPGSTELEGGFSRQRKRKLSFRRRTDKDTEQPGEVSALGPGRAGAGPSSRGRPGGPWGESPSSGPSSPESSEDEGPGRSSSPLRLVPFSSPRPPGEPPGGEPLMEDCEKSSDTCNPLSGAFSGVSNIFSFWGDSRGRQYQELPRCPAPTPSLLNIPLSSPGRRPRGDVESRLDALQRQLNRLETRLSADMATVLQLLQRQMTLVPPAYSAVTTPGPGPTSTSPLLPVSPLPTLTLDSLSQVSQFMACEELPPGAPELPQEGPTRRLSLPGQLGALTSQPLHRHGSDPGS
row,Structure (SMILES),"hERG current change (%, negative = inhibition) at 10uM [%]"
1,O=C(/C(=N\Nc1ccc(Br)cc1)Sc1nnnn1-c1ccccc1)c1ccccc1,13.8
2,Cc1ccc(S(=O)(=O)CCC(=O)N2CCc3ccccc32)cc1,-16
3,O=C(Nc1ccc(F)c(F)c1)C1CCN(S(=O)(=O)c2cccs2)CC1,-53.7
4,CC(=O)N1c2ccc(S(=O)(=O)N(C)CC(=O)NC3CCCCC3C)cc2CC1C (stereo not shown),9.7
5,COc1ccc(OC)c(NC(=O)COC(=O)CCCN2C(=O)c3ccccc3C2=O)c1,9.05
6,CNc1ncc(Cc2ccccc2)s1,-5.32
7,COc1ccccc1OCC(=O)NC1CCCCCC1,-8.54
8,C#CCOCCOCCOCCNc1nc(N2CCOCC2)nc(N2CCN(C(=O)[C@H](CCC(=O)O)n3cc(C(N)[C@H](C)CC)nn3)CC2)n1.Cl (stereo partly shown),12.3
9,Cc1cc(/C=C(\C#N)C(=O)N2CCOCC2)c(C)n1C1CCCC1,-2.31
10,O=C(CCCl)Nc1ccc(S(=O)(=O)NCc2ccco2)cc1,3.41
11,O=C(COc1ccc(Br)cc1)N1CCNC1=O,-0.826
12,COc1cc(C=O)ccc1OCC(=O)N1CCOCC1,2.65
13,O=C(Nc1nnc(S(=O)(=O)N2CCCCCC2)s1)c1ccccc1F,6.76
14,CCCn1c(CCC(=O)O)ccc1-c1ccc(F)cc1,8.49
15,Cn1c(S(=O)(=O)O)nc2ccccc21,13.9
16,Clc1ccc(CCNCc2ccncc2)c(Cl)c1.O=C(O)C(=O)O,-49.4
17,COc1ccc(N/C(=N/c2nc(C)cc(C)n2)NC(=O)Nc2ccc(Cl)c(Cl)c2)c(OC)c1,-7.96
18,C[C@@H](N)C(=O)NCC1CCC(C(=O)N[C@@H](Cc2ccccc2)C(=O)O)CC1.Cl (stereo partly shown),22.5
19,COCC(=O)N1CCC(Oc2ccc(C(=O)NC(C)c3nccs3)cc2)CC1 (stereo not shown),9.1
20,COc1cccc(C(C)NC(=O)c2ccncc2)c1 (stereo not shown),27.3
21,COc1ccccc1NC(=O)CSc1nnnn1Cc1ccccc1,-15.8
22,CCOC(=O)C1CCN(C(=O)CCCn2nc(CC)n3c(cc4occc43)c2=O)CC1,-19.6

row,Structure (SMILES),"hERG current change (%, negative = inhibition) at 10uM [%]"
1,Cc1c(O)c2c(=O)n(-c3ccccc3)c(-c3ccccc3)cc2oc1=O,-1.68
2,CSc1sc(-c2nnc(SCC(=O)Nc3ccc(Cl)cc3)n2C)c2c1C=CCC2,10.5
3,O=C(CCSCCC(=O)NCc1ccc(F)cc1)NCc1ccc(F)cc1,-21.3
4,COc1ccc(-n2cc(-c3ccccc3)c3c(N4CCOCC4)ncnc32)cc1,22.5
5,CC(=O)NCC(=O)OCC(=O)c1ccc2ccccc2c1,2.03
6,NCCCCC(N)c1cn([C@@H](CCC(=O)O)C(=O)N2CCNCC2)nn1 (stereo partly shown),17.4
7,Cc1ccc(N2CC(C(=O)Nc3ccc4c(c3)OCO4)CC2=O)cc1 (stereo not shown),9.48
8,CCCCOCCCNC(=S)Nc1ccc(S(=O)(=O)N2CCOCC2)cc1,-19.3
9,O=C(CN1CCN(Cc2ccccc2)CC1)NC(c1ccccc1)c1ccccc1.O=C(O)C(=O)O,-59.8
10,COC(=O)/C(=C\c1cccnc1)NC(=O)c1ccc(OCc2ccccc2)cc1,-39.1
11,COc1ccc(C2NC(=O)c3n[nH]c(C)c32)c(OC)c1 (stereo not shown),4.64
12,COc1c(Cl)cccc1-c1cn2ccc(C)cc2n1,-15.2
13,CNS(=O)(=O)c1ccc(C(C)(C)C)cc1,3.83
14,CCCC(C(=O)NCc1ccco1)N(CC1CCCO1)C(=O)CNS(=O)(=O)c1ccc(F)cc1 (stereo not shown),5.99
15,COc1ccc(CNC(=O)CSc2ncn[nH]2)cc1OC,17
16,COc1ccc(NC(=O)/C(C#N)=C\c2ccc(OCc3ccc(C(=O)O)cc3)c(OC)c2)cc1,3.69
17,CCOC(=O)C1C(=O)C(C(=O)OCC)C(c2cccnc2)NC1c1cccnc1 (stereo not shown),-21.8
18,COc1cccc(NC(=O)CN(C)C(=O)c2ccc3c(c2)S(=O)(=O)N=C2CCCCCN23)c1,15
19,Cl.O=C(CCN1CCOCC1)NC12CC3CC(CC(C3)C1)C2,12.8
20,COc1ccccc1C(=O)NC(CCSC)C(=O)NCC(c1ccccc1OC)N1CCCC1 (stereo not shown),-35.1
21,O=S(=O)(c1ccc(F)cc1F)N1CCCN(c2ccc(C(F)(F)F)cn2)CC1,-18.7
